# Hit rate of the full screen: of about 120,000 compounds, about 5,300 (4.4%) were called active. The shares of active, inactive and inconclusive entries below differ from those in the screen. Calls come from the whole dose curve; as a rule, active = well fitted inhibition curve with a large enough effect; inconclusive = small, poorly fitted or top-dose-only effect; inactive = no such curve, though single readings can be large or run the other way. Where the call is inconclusive, the potency comes from a doubtful curve fit.
# Assay: qHTS Primary assay for Inhibitors of Plasmodium falciparum Dd2 growth in vitro; note: nearly all actives have a fitted effect of over 65% in size
# Settings: P. falciparum Dd2 growth, SYBR Green, 72 h; series mostly up to 28.9 µM
# How it was run: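 Infected erythrocytes (Dd2, 0.3% parasitemia, 2.5% hematocrit final) are added to compound in RPMI-1640/Albumax II medium, grown 72 h at 37C in low oxygen, then lysed with saponin/Triton-X containing SYBR Green and read by fluorescence.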
# Potency is the fitted concentration of half-maximal effect; tags give direction and shape of the fitted curve.
row,Compound,Potency
1,CC1CCN(S(=O)(=O)N2CCC(C(=O)N3CCC(Cc4nncn4CC4CC4)CC3)CC2)CC1,"inconclusive: 20 µM [inhibitor, single point]"
2,Cc1ccc(CNC(=O)CN2C(=O)CC(c3ccc(C)c(C)c3)=Nc3ccccc32)cc1,"inconclusive: 12.6 µM [inhibitor, single point]"
3,CCc1cccc(C)c1NC(=O)Cn1ccn2nc3c(c2c1=O)CCCCC3,inactive
4,CCOc1ccc(-c2cc(C(=O)NCCc3ccc(OC)c(OC)c3)[nH]n2)cc1,"inconclusive: 11.2 µM [inhibitor, partial curve, poor fit]"
5,CCCNC(=O)N1CCCN(S(=O)(=O)c2ccccc2)CCC(=O)NCC1,inactive
6,O=c1c2oc3ccccc3c2n(Cc2cccc(F)c2)c(=O)n1Cc1ccc2c(c1)OCO2,"inconclusive: 10 µM [inhibitor, single point]"
7,Cc1ccccc1CNC(=O)C(=O)NCC(c1cccs1)S(=O)(=O)c1cccs1 (stereo unspecified),"inconclusive: 4.47 µM [inhibitor, partial curve]"
8,COc1ccc(NC(=O)Cn2nc3n(c2=O)CCCCC3)cc1OC,inactive
9,O=C(c1cc2ccccc2[nH]1)N1CCC2(C1)NC(=O)N(Cc1ccccc1)C2=O (stereo unspecified),"inconclusive: 17.8 µM [inhibitor, single point]"
10,COc1ccc(-n2nc(C(=O)Nc3cc(C)ccn3)c3c4ccccc4n(C)c3c2=O)cc1Cl,"inconclusive: 1.12 µM [inhibitor, single point]"
11,O=C1NC2(CCN([S+](=O)([O-])c3ccccc3)C2)OCc2ccccc21 (stereo unspecified),inactive
12,O=S(=O)(c1ccccc1)N1CCN(c2cc(C3CC(O)C3)ncn2)CC1 (stereo unspecified),inactive
13,COc1ccccc1NC(=O)C(=O)NCC(c1cccnc1)N1CCc2ccccc2C1 (stereo unspecified),"inconclusive: 17.8 µM [inhibitor, single point]"
14,COc1cccc(CNC(=O)Cn2c(=O)oc3cc(S(=O)(=O)N4CCCCCC4)ccc32)c1,"inconclusive: 10 µM [inhibitor, single point]"
15,COc1ccc(CN2C=C(C(=O)OCc3nc(-c4cccc(C)c4)no3)C(C)=NS2(=O)=O)cc1,"inconclusive: 10 µM [inhibitor, single point]"
16,C=CCC(=O)N(CC1CCN(CCc2ccccc2C)CC1)C1CCCC1,"inconclusive: 14.1 µM [inhibitor, single point]"
17,O=C1Nc2ccccc2CC12CCN(Cc1ccccc1)C2 (stereo unspecified),"inconclusive: 2.24 µM [inhibitor, full curve, poor fit]"
18,COc1cc([C@@H]2c3cc4c(cc3[C@H](O)[C@@H](CO)[C@@H]2C(=O)N2CCCCC2)OCO4)cc(OC)c1OC,inactive
19,COc1ccc(CCN2CCC(CNC(=O)c3cnn(-c4cccc(Cl)c4)c3C3CCN(C(=O)OC(C)(C)C)CC3)CC2)cc1,"inconclusive: 3.55 µM [inhibitor, single point]"
20,COCCC1(NS(C)(=O)=O)CCN(C(=O)c2ccc(OC)nc2OC)CC1,"inconclusive: 12.6 µM [inhibitor, partial curve, poor fit]"
21,CC(C)(C)c1nnc(NC(=O)NCc2ccncc2)s1,"inconclusive: 3.98 µM [inhibitor, single point]"

row,Compound,Potency
1,O=C(NC1CCCCC1)c1ccc2c(c1)N(C(=O)c1ccc(F)cc1)CC2,inactive
2,COCCN1C(=O)c2cccn2CC1CNC(=O)c1cccc2nccnc12 (stereo unspecified),inactive
3,CC(C)c1ccc(CC(=O)N2CCCc3ncc(C(=O)NCc4cccnc4)cc32)cc1,"inconclusive: 20 µM [inhibitor, single point]"
4,CNC(=O)N1CCC(C2CCN(C(=O)c3cccc(C#N)c3)C2)CC1 (stereo unspecified),inactive
5,Cc1cccc(NC(=O)/C(C#N)=C/c2ccc(C)o2)c1,"inconclusive: 11.2 µM [inhibitor, single point]"
6,CCOC(=O)c1ccc(NC(=O)CCc2nc3cccnc3n2Cc2cccs2)cc1,"inconclusive: 12.6 µM [inhibitor, partial curve, poor fit]"
7,CN(Cc1cccc(-n2cccn2)c1)Cc1nc(-c2cccs2)no1,inactive
8,O[C@H]1CC[C@@H](Cc2cc(-c3ccc(F)cc3)on2)O[C@@H]1CNC1CCCCC1,"inconclusive: 1 µM [inhibitor, full curve, poor fit]"
9,N#Cc1ccc(NC2CC(c3cc(N4CCC(O)C4)ncn3)C2)nc1 (stereo unspecified),"inconclusive: 14.1 µM [inhibitor, partial curve, poor fit]"
10,CCOCC(=O)N1CCCC(c2cc(N3CCOCC3)nc(C)n2)C1 (stereo unspecified),inactive
11,O=C1COc2ccc(Nc3ccccc3)nc2CN1Cc1ccccc1,"inconclusive: 31.6 µM [inhibitor, partial curve, poor fit]"
12,CC(=O)Nc1cccc(-c2cnc3n[nH]c(-c4ccc5c(c4)OCO5)c3n2)c1,active: 2.51 µM
13,COc1ccc(S(=O)(=O)N2C[C@@H]3C[C@H](C2)c2ccc(NS(=O)(=O)c4cccs4)c(=O)n2C3)cc1,inactive
14,COc1ccc(N2CCN(C(=O)CSCc3ccc(C)cc3)CC2)cc1,inactive
15,Cc1ccc(C(=O)NC[C@H]2C[C@@H]3CCN2C[C@@H]3c2cc(-c3ccccc3)nn2C)cc1,"inconclusive: 31.6 µM [inhibitor, single point]"
16,COc1ccc(-c2nc(CSCC(=O)N3CCN(c4ccccc4)CC3)c(C)o2)cc1,active: 7.08 µM
17,Cc1c(Cl)cccc1Nc1nn2c(=O)c3ccc(C(=O)N(C)Cc4ccccc4)cc3nc2s1,"inconclusive: 0.794 µM [inhibitor, full curve, poor fit]"
18,Cc1cc(C)cc(-n2c(SCC(=O)NC3CCCCC3)nc3c([nH]c4ccccc43)c2=O)c1,"inconclusive: 10 µM [inhibitor, partial curve, poor fit]"
19,O=C1NCc2ccccc2CC12CCCN(Cc1cccc(Cl)c1)C2 (stereo unspecified),"inconclusive: 5.62 µM [inhibitor, partial curve]"
20,CN(c1ccccc1)c1ccc2nnc(-c3cc(C(=O)NC4CCC(O)CC4)ccn3)n2n1 (stereo unspecified),"inconclusive: 4.47 µM [inhibitor, partial curve, poor fit]"

# Reference: PubChem BioAssay AID1347417 (National Center for Advancing Translational Sciences (NCATS), 2020)
